Measurements from PubChem BioAssay AID1347070 (National Center for Advancing Translational Sciences (NCATS), 2019).
The campaign covered roughly 94,000 compounds. About 20 (0.02%) were called active. The inconclusive results got no clear call from the source; some entries with a clear call stand among them for comparison. Calls follow the shape of the dose curve; as a rule, active = well fitted activation curve with a large enough effect; inconclusive = small, poorly fitted or top-dose-only effect; inactive = flat fitted curve, though single readings scatter. No potency is given beside an inconclusive call; the fits are too rough.

assay: qHTS of alpha-syn Inhibitors: NCGC Sytravon Library Screen; as to growth rescue (activation): 0% is about no effect; conditions: S. cerevisiae alpha-synuclein toxicity rescue, BacTiter-Glo growth, 24 h; growth rescue (activation): at 46.1 µM (top of the series)
Method in brief: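 Growth restoration measured by BacTiter-Glo luminescence after 24 hr at 30 deg C; alpha-synuclein yeast, raffinose-pregrown to mid-log, were added at OD600=0.02 in galactose medium onto pinned compounds.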
Potency is read from the fitted curve at half-maximal effect; tags tell the direction and shape of the fitted curve.

Row | SMILES | Potency | growth rescue (activation)
1 | CCCCOc1ccc(C2=NC(c3ccncc3)=Nc3ccc(OCC)cc3N2)cc1 | inactive | 
2 | CCOc1ccccc1CNC(=O)C1CCN(c2nnc(-n3c(C)ccc3C)s2)CC1 | inactive | 
3 | COc1ccc2sc(N(Cc3cccnc3)C(=O)C3CCCCC3)nc2c1 |  | inconclusive: 27.3% [activator]
4 | CCOc1cccc2c1N[C@@H](c1ccc(C(=O)O)cc1)[C@H]1CC=C[C@@H]21 | inconclusive [activator, partial curve] | 
5 | Cc1ccc2c(c1)N(C(=O)N1CCC(C(=O)NCCc3ccc(Cl)cc3)CC1)CC(C)O2 (centres undefined) | inactive | 
6 | CCc1ccc(-c2nc(CS(=O)CC(=O)NCCc3ccc(C)cc3)c(C)o2)cc1 (centres undefined) | active: 20 µM | 
7 | COc1ccc(N2CCN(C(CNS(=O)(=O)c3ccc(OC)c(C)c3)c3ccco3)CC2)cc1 (centres undefined) | inactive | 
8 | CC(CNC(=O)c1ccc(Cn2c(=O)c3cccn3c3cccnc32)cc1)c1ccccc1 (centres undefined) | inactive | 
9 | CC(C)Cn1c(=O)c2ccccc2n2c(CCC(=O)Nc3ccc(F)cc3)nnc12 | inactive | 
10 | CCn1nnc2cc(C(=O)Nc3cc(C)ccc3C)ccc21 | inactive | 
11 | Cc1ccc(Nc2nc(=O)c3cc([N+](=O)[O-])ccc3s2)cc1 | inactive | 
12 | COc1cc(NC(=O)c2ccc(NC3=NC4CS(=O)(=O)CC4S3)cc2)cc(OC)c1 (centres undefined) |  | inconclusive: 44% [activator]
13 | COc1ccc(OC)c(NC(=O)N2CC3CCCN3c3ccccc32)c1 (centres undefined) | inconclusive [activator, single point] | 
14 | CCC(C)NC(=O)c1c(C)oc2nc(C)nc(N3CCOCC3)c12 (centres undefined) | inconclusive [activator, single point] | 
15 | Cc1cccc(Nc2nnc(-c3ccc(C)c(S(=O)(=O)N4CCN(C)CC4)c3)c3ccccc23)c1 | inactive | 
16 | CCCCN1C(=O)C(O)(CC(=O)c2ccc(C)cc2C)c2cc(Br)ccc21 (centres undefined) | inconclusive [activator, single point] | 
17 | COC(=O)c1ccccc1NC(=O)CCCn1c(=O)c2cccn2c2cccnc21 | inconclusive [activator, single point] | 
18 | COc1ccc(C(=O)CC2(O)C(=O)N(Cc3cccc(C(F)(F)F)c3)c3ccccc32)cc1 (centres undefined) | inconclusive [activator, single point] | 
19 | O=C1CCSC2(C(=O)N(Cc3ccc(F)cc3)c3ccccc32)N1c1ccc(Cl)cc1 (centres undefined) | inconclusive [activator, single point] | 
20 | O=C(CS(=O)(=O)c1cccc2nsnc12)NCc1ccccc1 | inactive | 
21 | CCOc1ccc2nc(N(Cc3cccnc3)C(=O)C3CCCCC3)sc2c1 | inconclusive [activator, full curve] | 
22 | CCC1Oc2ccccc2N(CC(=O)NCc2cc(OC)ccc2OC)C1=O (centres undefined) | inconclusive [activator, single point] | 

Row | SMILES | Potency | growth rescue (activation)
23 | O=C(CSc1nccn1-c1cccc(Cl)c1)Nc1cccc2ccccc12 | inconclusive [activator, single point] | 
24 | COc1cccc(N2CC(NC(=O)COc3ccc4ccccc4c3)CC2=O)c1 (centres undefined) | inconclusive [activator, single point] | 
25 | CCOC(=O)C1=C(C)Nc2nc(=S)[nH]n2C1c1ccc(Cl)cc1 (centres undefined) |  | inconclusive: 123% [activator]
26 | COc1cccc(NC(=O)CSC2=Nc3ccccc3C3=NC(CCC(=O)NCc4ccco4)C(=O)N23)c1 (centres undefined) | inconclusive [activator, single point] | 
27 | COc1cc(C)ccc1OCCSc1nnc(-c2ccc(C)cc2)o1 | inconclusive [activator, single point] | 
28 | Cc1ccc(N(CC(=O)N2CCN(c3cccc(Cl)c3)CC2)S(=O)(=O)c2c(C)noc2C)cc1 | inconclusive [activator, single point] | 
29 | CCCSc1oc(-c2ccco2)nc1S(=O)(=O)c1ccc(Br)cc1 | inconclusive [activator, partial curve] | 
30 | CCOc1ccccc1NC(=O)c1sc2nc3c(cc2c1N)CN(Cc1ccccc1)CC3 | inactive | 
31 | Cc1ccc(Cl)cc1N1CCN(C(=O)CCSCc2ccccc2F)CC1 | inconclusive [activator, single point] | 
32 | CCN(Cc1ccccc1)C(=O)CN1C(=O)COc2ccc(S(=O)(=O)N(CC)CC)cc21 | inconclusive [activator, single point] | 
33 | Cc1ccc(C)c(N2CCN(C(=O)CCn3c(=O)c4cccn4c4cccnc43)CC2)c1 | inconclusive [activator, single point] | 
34 | COc1cc(Cn2c(=O)sc3ccccc32)ccc1OCCC(C)C | inconclusive [activator, single point] | 
35 | COc1ccc(C2C(=O)N(C3CCCCCC3)CC(=O)N2CCC2=CCCCC2)cc1 (centres undefined) | inactive | 
36 | Cc1cccc(NC(c2ccccc2C)c2ccc3ccc(C)nc3c2O)n1 (centres undefined) | inconclusive [activator, single point] | 
37 | CCNC(=O)C1CCN(c2nnc(C)c3c(C)n(-c4ccc(OC)cc4)nc23)CC1 | inactive | 
38 | Cn1c(COc2cccc3ccccc23)nnc1SCC(=O)OC1CCCCC1 |  | inconclusive: 108% [activator]
39 | CC(=O)c1cccc(NC(=O)c2noc3c2CSc2ccccc2-3)c1 | inactive | 
40 | CN(C(=O)c1ccc2c(c1)N(Cc1ccccc1F)C(=O)c1ccccc1S2)C1CCCCC1 | inconclusive [activator, single point] | 
41 | O=C(COc1ccccc1)N(Cc1cccnc1)c1nc2ccc(Cl)cc2s1 | inconclusive [activator, partial curve] | 
42 | COc1ccc(CNC(=O)CN(c2ccccc2OC)S(=O)(=O)c2ccc(C)cc2)cc1 | inactive | 
43 | COc1ccccc1CNC(=O)Cc1csc2nc(-c3ccc(Cl)cc3)cn12 | inconclusive [activator, single point] | 
44 | O=C(CCSCc1ccccc1Cl)N1CCN(c2cccc(Cl)c2)CC1 | inconclusive [activator, single point] | 
